The whole screen tested about 3,200 compounds, of which about 75 (2%) showed an effect of 50% or more. This is one part of the list.
Tested on: T1, S. aureus MSSA476
T1 construct: MSSA476
Set-up: species or system S. aureus MSSA476 (TSB) or V. cholerae SAD30 (LB); 384-well bacterial growth screen at 25 uM, OD600 relative to DMSO control
Details: relative growth, OD600, TSB; 25 µM; inhibitor

Compound | % of control remaining [%]
C=CC(=O)N(Cc1c(C)cccc1OC)C1CCCCNC1=O (centres unmarked) [1-F09, N-[(2-methoxy-6-methylphenyl)methyl]-N-(2-oxoazepan-3-yl)prop-2-enamide] | 104.791
Cc1ncc(CNC(=O)C(C)Cl)n1C (centres unmarked) [5-J15, 2-chloro-N-[(1,2-dimethyl-1H-imidazol-5-yl)methyl]propanamide] | 97.2678
C=CC(=O)N1CCC(C(=O)NCc2c[nH]cn2)CC1 [2-G10, N-[(1H-imidazol-4-yl)methyl]-1-(prop-2-enoyl)piperidine-4-carboxamide] | 85.6397
CC(Cl)C(=O)NCc1cc(C(F)(F)F)cs1 (centres unmarked) [7-J19, 2-chloro-N-{[4-(trifluoromethyl)thiophen-2-yl]methyl}propanamide] | 77.865
C=CC(=O)NCc1ccccc1N1CCCC(C(N)=O)C1 (centres unmarked) [3-L21, 1-{2-[(prop-2-enamido)methyl]phenyl}piperidine-3-carboxamide] | 104.484
C=CC(=O)NC(C)c1nnc(-c2ccccc2F)s1 (centres unmarked) [3-N13, N-{1-[5-(2-fluorophenyl)-1,3,4-thiadiazol-2-yl]ethyl}prop-2-enamide] | 108.663
Cc1nc(C)c(S(=O)(=O)N2CCSSCC2)s1 [10-M18, 5-[(2,4-dimethyl-1,3-thiazol-5-yl)sulfonyl]-1,2,5-dithiazepane] | 132.813
Cc1coc(C)c1C(=O)CCl [10-M11, 2-chloro-1-(2,4-dimethylfuran-3-yl)ethan-1-one] | 117.813
COc1ccc(-n2c(C)c(C)c(C#N)c2NC(=O)CCl)cc1 [4-F20, 2-chloro-N-[3-cyano-1-(4-methoxyphenyl)-4,5-dimethyl-1H-pyrrol-2-yl]acetamide] | 125.393
C=CC(=O)N1CCC(C(=O)N2CCC(C(C)(C)O)CC2)CC1 [2-H14, 1-{4-[4-(2-hydroxypropan-2-yl)piperidine-1-carbonyl]piperidin-1-yl}prop-2-en-1-one] | 129.504
CCC(C)c1ccccc1NC(=O)C(C)Cl (centres unmarked) [4-O10, N-[2-(butan-2-yl)phenyl]-2-chloropropanamide] | 107.099
C=CC(=O)Nc1cc(OC)cc(S(C)(=O)=O)c1 [1-H16, N-(3-methanesulfonyl-5-methoxyphenyl)prop-2-enamide] | 109.714
CCCSc1nsc(NC(=O)CCl)n1 [4-G15, 2-chloro-N-[3-(propylsulfanyl)-1,2,4-thiadiazol-5-yl]acetamide] | 106.717
Cl.O=C(CCl)Nc1cccnn1 [6-O17, 2-chloro-N-(pyridazin-3-yl)acetamide hydrochloride] | 75.4634
O=C1C=CC(=O)N1c1ccccc1Sc1ccccc1 [10-K12, 1-[2-(phenylsulfanyl)phenyl]-2,5-dihydro-1H-pyrrole-2,5-dione] | 129.063
CC(Cl)C(=O)N1CCCCCC1c1noc(-c2cnn(C)c2)n1 (centres unmarked) [7-C05, 2-chloro-1-{2-[5-(1-methyl-1H-pyrazol-4-yl)-1,2,4-oxadiazol-3-yl]azepan-1-yl}propan-1-one] | 104.553
Cc1ccc(CNC(=O)C(C)Cl)c2ccccc12 (centres unmarked) [7-O10, 2-chloro-N-[(4-methylnaphthalen-1-yl)methyl]propanamide] | 96.3893
CC(Cl)C(=O)Nc1nc(-c2cccc([N+](=O)[O-])c2)cs1 (centres unmarked) [4-E08, 2-chloro-N-[4-(3-nitrophenyl)-1,3-thiazol-2-yl]propanamide] | 115.102
O=C(CCl)NCC1CC(=O)N(c2ccccc2)C1 (centres unmarked) [5-A09, 2-chloro-N-[(5-oxo-1-phenylpyrrolidin-3-yl)methyl]acetamide] | 88.5246
C[C@@H](NC(=O)CCl)c1ccc(F)cc1 [6-G21, 2-chloro-N-[(1R)-1-(4-fluorophenyl)ethyl]acetamide] | 93.9024
O=C(CCl)N(Cc1ccccc1)c1ccccc1 [4-G13, N-benzyl-2-chloro-N-phenylacetamide] | 77.7513
CCOC(=O)C1=C(C)NC(=O)N(C(=O)CCl)C1c1ccccc1 (centres unmarked) [5-I05, ethyl 3-(2-chloroacetyl)-6-methyl-2-oxo-4-phenyl-1,2,3,4-tetrahydropyrimidine-5-carboxylate] | 107.468

Compound | % of control remaining [%]
O=C(CCl)NC(Cc1ccccc1)C(=O)O (centres unmarked) [6-C13, 2-(2-chloroacetamido)-3-phenylpropanoic acid] | 99.7073
C=CC(=O)N[C@H]1CCN(S(=O)(=O)c2ccccc2)C1 [3-P11, N-[(3S)-1-(benzenesulfonyl)pyrrolidin-3-yl]prop-2-enamide] | 99.2599
C=CC(=O)N1CCC(C(=O)NCc2nccn2C)(c2ccccc2)CC1 [3-I10, N-[(1-methyl-1H-imidazol-2-yl)methyl]-4-phenyl-1-(prop-2-enoyl)piperidine-4-carboxamide] | 94.7323
Cc1cc(C=C(C#N)C(=O)Nc2cn[nH]c2)c(C)n1-c1ccc(F)cc1 [9-N07, 2-cyano-3-[1-(4-fluorophenyl)-2,5-dimethyl-1H-pyrrol-3-yl]-N-(1H-pyrazol-4-yl)prop-2-enamide] | 60.2247
C=CC(=O)N1CCC(C(=O)N[C@H]2CCCCCC[C@H]2C(=O)OC)CC1 (racemic) [2-H06, rac-methyl (1R,2S)-2-[1-(prop-2-enoyl)piperidine-4-amido]cyclooctane-1-carboxylate] | 77.9809
CC(Cl)C(=O)NCC(=O)N(C)Cc1cccnc1 (centres unmarked) [7-P15, 2-chloro-N-({methyl[(pyridin-3-yl)methyl]carbamoyl}methyl)propanamide] | 117.111
Cc1ccc(C(=O)C(C)Cl)cc1 (centres unmarked) [10-F20, 2-chloro-1-(4-methylphenyl)propan-1-one] | 110.938
Cc1ccc(NC(=O)C(C#N)=Cc2ccc(C)s2)cc1 [8-K13, 2-cyano-N-(4-methylphenyl)-3-(5-methylthiophen-2-yl)prop-2-enamide] | 94.6058
CC(Cl)C(=O)NCc1nc2cccnc2n1C (centres unmarked) [7-O17, 2-chloro-N-({3-methyl-3H-imidazo[4,5-b]pyridin-2-yl}methyl)propanamide] | 101.727
COc1ccc(N2C(=O)C=CC2=O)c(OC)c1 [10-J15, 1-(2,4-dimethoxyphenyl)-2,5-dihydro-1H-pyrrole-2,5-dione] | 121.875
C=CCNC(=O)C(C#N)=Cc1sccc1C [9-P07, 2-cyano-3-(3-methylthiophen-2-yl)-N-(prop-2-en-1-yl)prop-2-enamide] | 115.955
CC(Cl)C(=O)NC(c1cccc(C(F)(F)F)c1)c1nnc[nH]1 (centres unmarked) [7-M17, 2-chloro-N-[(4H-1,2,4-triazol-3-yl)[3-(trifluoromethyl)phenyl]methyl]propanamide] | 109.576
COC(=O)c1c(NC(=O)CCl)sc(Cl)c1-c1ccccc1 [4-E20, methyl 5-chloro-2-(2-chloroacetamido)-4-phenylthiophene-3-carboxylate] | 117.008
N#CC(=Cc1ccco1)C(=O)NCc1ccc(-c2cccnc2)cc1 [9-F16, 2-cyano-3-(furan-2-yl)-N-{[4-(pyridin-3-yl)phenyl]methyl}prop-2-enamide] | 69.8127
C=CC(=O)N(CC)CC(=O)N1CCNC(=O)C1c1cccs1 (centres unmarked) [3-G07, N-ethyl-N-{2-oxo-2-[3-oxo-2-(thiophen-2-yl)piperazin-1-yl]ethyl}prop-2-enamide] | 93.6874
COc1cc(C=C(C#N)C(=O)Nc2ccc(Cl)cc2)cc(OC)c1 [8-K16, N-(4-chlorophenyl)-2-cyano-3-(3,5-dimethoxyphenyl)prop-2-enamide] | 107.552
CC(NC(=O)C(C#N)=Cc1cc(F)ccc1F)c1ccccc1 (centres unmarked) [8-O06, 2-cyano-3-(2,5-difluorophenyl)-N-(1-phenylethyl)prop-2-enamide] | 104.564
C=CC(=O)N1CCCC(c2nc(N(C)C)no2)C1 (centres unmarked) [3-A13, 1-{3-[3-(dimethylamino)-1,2,4-oxadiazol-5-yl]piperidin-1-yl}prop-2-en-1-one] | 95.4288
C=CC(=O)N1C[C@H](NC(C)=O)[C@@H](c2ccnn2C)C1 (racemic) [2-M16, rac-N-[(3R,4S)-4-(1-methyl-1H-pyrazol-5-yl)-1-(prop-2-enoyl)pyrrolidin-3-yl]acetamide] | 90.5135
Cc1cccc(C=C(C#N)C(=O)NC2CCCCC2)c1 [8-K07, 2-cyano-N-cyclohexyl-3-(3-methylphenyl)prop-2-enamide] | 103.568
C=CC(=O)N1CCC(C(=O)N2CCCC2COC)CC1 (centres unmarked) [2-E12, 1-{4-[2-(methoxymethyl)pyrrolidine-1-carbonyl]piperidin-1-yl}prop-2-en-1-one] | 120.104
C=CC(=O)N(CC)CC(=O)NC1CCN(C(C)=O)c2ccccc21 (centres unmarked) [2-N06, N-{[(1-acetyl-1,2,3,4-tetrahydroquinolin-4-yl)carbamoyl]methyl}-N-ethylprop-2-enamide] | 128.46

Reference: paper PMC11995724, “Antibiotic target discovery by integrated phenotypic and activity-based profiling of electrophilic fragments” (Cell chemical biology, 2025)
